According to article PMC4336329 (PLoS ONE, 2015):
In all, about 310,000 compounds went through this assay and about 14,000 (4.5%) showed an effect of 50% or more. The effect is printed as a negative number. Some of the results follow.

Molecular target: human ether-à-go-go-related gene (hERG) potassium channel (human, UniProt Q12809)
Assay: primary screen, population patch clamp on CHO cells stably expressing hERG
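Also: peak tail current of the secondary pulse compared with the same well before compound.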

Sequence of human ether-à-go-go-related gene (hERG) potassium channel (Q12809 whole entry, looked up): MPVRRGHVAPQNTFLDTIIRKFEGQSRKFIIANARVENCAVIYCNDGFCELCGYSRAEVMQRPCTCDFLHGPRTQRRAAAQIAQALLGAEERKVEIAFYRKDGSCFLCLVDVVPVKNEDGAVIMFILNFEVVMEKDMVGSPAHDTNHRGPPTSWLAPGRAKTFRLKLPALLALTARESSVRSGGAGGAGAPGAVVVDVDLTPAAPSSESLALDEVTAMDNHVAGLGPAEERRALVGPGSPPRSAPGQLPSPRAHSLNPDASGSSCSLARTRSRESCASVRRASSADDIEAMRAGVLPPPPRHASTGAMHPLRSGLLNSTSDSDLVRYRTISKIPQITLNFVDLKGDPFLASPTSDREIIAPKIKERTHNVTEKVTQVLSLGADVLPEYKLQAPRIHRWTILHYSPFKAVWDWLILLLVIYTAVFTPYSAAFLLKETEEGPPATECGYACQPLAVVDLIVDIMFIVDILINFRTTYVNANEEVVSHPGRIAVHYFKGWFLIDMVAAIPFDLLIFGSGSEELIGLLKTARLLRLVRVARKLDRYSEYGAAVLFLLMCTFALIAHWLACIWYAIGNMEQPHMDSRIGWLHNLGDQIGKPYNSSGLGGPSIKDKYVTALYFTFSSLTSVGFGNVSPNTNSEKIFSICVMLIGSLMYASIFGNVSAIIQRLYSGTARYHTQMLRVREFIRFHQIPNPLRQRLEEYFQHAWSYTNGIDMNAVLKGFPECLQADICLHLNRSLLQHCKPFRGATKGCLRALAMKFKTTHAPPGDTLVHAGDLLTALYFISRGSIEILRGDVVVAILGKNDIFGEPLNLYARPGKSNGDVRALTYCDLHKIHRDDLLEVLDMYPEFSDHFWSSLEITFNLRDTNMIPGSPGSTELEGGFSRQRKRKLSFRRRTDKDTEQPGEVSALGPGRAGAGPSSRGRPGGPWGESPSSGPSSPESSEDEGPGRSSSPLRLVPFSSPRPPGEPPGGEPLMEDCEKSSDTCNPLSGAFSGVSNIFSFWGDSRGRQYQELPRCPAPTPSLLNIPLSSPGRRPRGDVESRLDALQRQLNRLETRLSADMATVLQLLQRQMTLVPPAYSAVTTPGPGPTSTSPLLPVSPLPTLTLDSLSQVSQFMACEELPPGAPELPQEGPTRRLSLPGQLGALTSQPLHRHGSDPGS

Row | Compound | hERG current change (%, negative = inhibition) at 10uM
1 | O=C(CSC(=S)N1CCCC1)N1CCN(S(=O)(=O)c2ccccc2F)CC1 | -25.3%
2 | O=C(NCc1ccccc1)c1ccc(N2CCC3(CC2)CC(c2ccccc2)=NO3)c([N+](=O)[O-])c1 | 5.28%
3 | Cc1ccc(Cn2nc(-c3ccccc3)nc2-c2ccccc2)cc1 | -2.45%
4 | COc1ccc(N2CCN(C(=O)CNS(=O)(=O)c3ccc(Br)s3)CC2)cc1 | -27.6%
5 | O=C(NNc1nc2c(F)cc(F)cc2s1)C1COc2ccccc2O1 (stereo not drawn) | -18.5%
6 | CC(C)(C)NC(=O)c1cccc2c1OC(C)(C)C2 | -7.3%
7 | O=c1[nH]cnc(O)c1C(c1ccc2c(c1)OCO2)c1c(O)nc[nH]c1=O | 4.14%
8 | O=C1NC[C@H](c2ccccc2)N(CCC23CC4CC(CC(C4)C2)C3)C1=O | 23.9%
9 | Cc1oc(-c2ccccc2)nc1CC(=O)O | 8.97%
10 | COc1cc(-c2nnc(NC(=O)C3=COCCO3)o2)cc(OC)c1OC | -8.14%
11 | Fc1ccccc1C1CCN(Cc2nc(CC3CC3)no2)C1 (stereo not drawn) | 2.1%
12 | CCC(C(=O)OCn1nnc2ccccc2c1=O)c1ccccc1 (stereo not drawn) | -11.5%
13 | CCN(CC)S(=O)(=O)c1cccc(-c2nnc(SCC(=O)NC3CCCCCC3)n2N)c1 | -40.6%
14 | Cc1ccc(C2=NNC(C(O)C(O)C(O)C(O)CO)S2)cc1 (stereo not drawn) | 2.26%
15 | Cc1cccn2c(=O)c(C(=O)NCCCN3CC(C)CC(C)C3)c(O)nc12 (stereo not drawn) | -20.3%
16 | Cc1ccccc1-n1c(O)c(/C=N/Nc2nc3c(c(=O)n(C)c(=O)n3C)n2C)c(=O)[nH]c1=S | 3.65%
17 | Cc1ccc(C)c(NC(=O)CCc2c(C)nn(-c3ccc(N4CCCCC4)nn3)c2C)c1 | 1.13%
18 | CCCCn1c(SCC(=O)c2ccccc2)nc2c1c(=O)[nH]c(=O)n2C | -13.8%
19 | Cc1ccccc1C(=O)NNC(=O)CN1C(=O)c2ccccc2C1=O | 11.6%
20 | Cc1ccc2c(c1)N(CC(=O)NC1CCC(C)CC1)C(=O)c1cccnc1O2 (stereo not drawn) | -8.15%
21 | COc1cc(/C=N/Nc2cccc3cccnc23)cc(OC)c1O | 12.8%
22 | COc1ccc(S(=O)(=O)N2CCCCC2)cc1NC(=O)CNc1ccc(F)cc1C | 13.9%

Row | Compound | hERG current change (%, negative = inhibition) at 10uM
23 | COc1ccc(-c2oc3ncnc(NCCCN4CCOCC4)c3c2-c2ccc(OC)cc2)cc1 | 2.49%
24 | COc1ccccc1CN1CCC(n2nccc2NC(=O)c2ccccc2Cl)CC1 | -76.2%
25 | C/C(=N\NC(=O)c1ccc(Br)cc1)c1ccccc1 | 1.2%
26 | CC(C)[C@H](NC(=O)N1CCn2c1nc1ccccc12)C(=O)N[C@H](Cc1ccccc1)C(=O)O | 6.38%
27 | Cc1ccc(C(=O)COC(=O)c2nc3nccc(C)n3n2)c(C)c1 | -7.14%
28 | c1ccc(COC2CCCN(Cc3nc(-c4cccs4)no3)C2)nc1 (stereo not drawn) | -3.95%
29 | Cc1ccc(NC(=O)C2=CCN(S(=O)(=O)c3ccc(F)cc3)CC2)c(C)c1 | 7.49%
30 | Cc1ccccc1NC(=O)Cc1cccs1 | 0.074%
31 | CCOC(=O)c1ccc(NC(=O)CCc2nc(-c3ccccc3)no2)cc1 | 4.66%
32 | O=C1Nc2ccccc2N2CCCC12 (stereo not drawn) | 8.4%
33 | CC(C)c1ccc(NC(=S)NCCc2c[nH]c3ccccc23)cc1 | 10.8%
34 | Cn1c(=O)[nH]c(=O)c2c1nc(Br)n2CCSc1nc2ccccc2o1 | -1.02%
35 | NNC(=O)c1cc2c(ccc3ccccc32)o1 | -8.53%
36 | Cc1nn(C)c2ncc(C(N)=O)c(Oc3ccc(Cl)cc3)c12 | 7.24%
37 | CCOC(=O)c1cccc(NC(=O)C2CCCN2S(=O)(=O)c2cccc3cccnc23)c1 (stereo not drawn) | -6.12%
38 | O=C(CSc1nnc(-c2ccccc2F)n1C1CC1)Nc1cccnc1Cl | -0.702%
39 | CCc1nnc(SCC(=O)N2CCCC(N3CCN(c4ccccc4C)CC3)C2)o1 (stereo not drawn) | -24.2%
40 | O=C(N/N=C\c1ccoc1)c1ccco1 | 7.28%
41 | Cc1cc(C(=O)Nc2c(F)cc(F)cc2Br)c(C)o1 | -1.93%
42 | NNC(=O)CN1C(CN2CCOCC2)=Nc2ccc(Br)cc2C1c1ccccc1 (stereo not drawn) | -48.9%
43 | Cc1ccccc1NS(=O)(=O)c1ccc(OCC(=O)N2CCN(C)CC2)cc1 | 1.27%
44 | NC(=O)c1ccc(Oc2ccc3c(c2)CCC3)c([N+](=O)[O-])c1 | -11%

Row | Compound | hERG current change (%, negative = inhibition) at 10uM
45 | CC(C)N1CCc2c(sc(NC(=O)c3nc4ccccc4s3)c2C(N)=O)C1.Cl | -45.1%
46 | O=C(N/N=C/c1cn(Cc2ccccc2)c2ccccc12)c1cc(O)cc(O)c1 | 19.5%
47 | CCOC(=O)c1cnn(-c2ccc(C)cc2)c1N | -1.1%
48 | O=C(CCc1c[nH]c2ccccc12)N1CCCCCCC1 | 5.91%
49 | COc1ccc(-n2nc3c(c2NC(=O)CBr)CSC3)cc1 | 7.81%
50 | O=C(NCc1ccccc1Cl)c1cnc2ccccc2n1 | -2.3%
51 | CCN(CC)S(=O)(=O)c1ccc(C)c(NC(=O)CNc2cccc(S(=O)(=O)N3CCCC3)c2)c1 | 1.08%
52 | CCCCCOc1ccc(/C=C/C(=O)NCCc2nc3ccccc3[nH]2)cc1OC | 30.1%
53 | Cc1ccc(S(=O)(=O)Nc2c(C)n(C)n(-c3ccccc3)c2=O)cc1C(=O)OCC(=O)N1CCCC(C)C1 (stereo not drawn) | -16.1%
54 | O=C(OCn1nnc2ccccc2c1=O)C1COc2ccccc2O1 (stereo not drawn) | 12.7%
55 | CCS(=O)(=O)c1nc(S(=O)(=O)c2ccc(Cl)cc2)c(N2CCC3(CC2)OCCO3)s1 | -51.5%
56 | Cc1cc(C)n2[nH]c(=O)c(N=Nc3ccc(S(N)(=O)=O)cc3)c2n1 | 26.4%
57 | COc1ccc(OC)c(C2C(C#N)=C(N)N(N(C)C)C3=C2C(=O)CCC3)c1 (stereo not drawn) | -6.02%
58 | CC(C)=CCN1CCN(Cc2cccn2-c2nccs2)CC1CCO (stereo not drawn) | -34.1%
59 | Fc1ccc(CSc2ncnc3sc4c(c23)CCCC4)cc1 | 18.4%
60 | Cn1c(=O)c2c(nc(NCc3ccco3)n2Cc2ccc(Cl)cc2Cl)n(C)c1=O | 3.8%
61 | Clc1cc2nc[nH]c2cc1Cl | -14.9%
62 | CCOC(=O)Cc1csc(NC(=O)C(NC(=O)C2CCCCC2)C(C)C)n1 (stereo not drawn) | 5.13%
63 | O=C(CCn1c(=O)[nH]c2ccsc2c1=O)Nc1ccc(F)c(F)c1 | 21%
64 | O=Cc1sc(Nc2ccccc2)nc1Cl | -13.1%
65 | Cc1ccc(C(=O)NCCc2nnc3ccc(NCc4ccc5c(c4)OCO5)nn23)cc1 | 1.81%
66 | O=C(Cn1c(=O)oc2cc(S(=O)(=O)N3CCCCCC3)ccc21)NC1CCCCC1 | 10%

Row | Compound | hERG current change (%, negative = inhibition) at 10uM
67 | COC(=O)C1CCN(C(=O)C2CCCCC2)CC1 | -1.12%
68 | Cc1ccccc1NC(=O)C1CCCN(S(=O)(=O)c2c(C)noc2C)C1 (stereo not drawn) | -4.83%
69 | O=C(OCCOCCN=C1NS(=O)(=O)c2ccccc21)C1CC(=O)N(c2ccccc2)C1 (stereo not drawn) | 13.1%
70 | COP1(=O)C[C@@H](O)[C@@H](O)[C@@H](COCc2ccccc2)O1 (stereo partly drawn) | 11%
71 | O=C(CSCc1ccccc1)N1CCN(c2ccccc2)CC1 | -25.7%
72 | Cc1cc(C)c2c(=O)[nH]c(SCC(=O)NCCc3ccccc3)nc2n1 | -2.47%
73 | COc1ccc(OC)c(NC(=O)COC(=O)c2c(C)noc2C)c1 | 12.6%
74 | COC(=O)c1ccc(CSc2cc(C)c3cc(C)cc(C)c3n2)o1 | 20.8%
75 | CCOC(=O)C1CCN(C(=O)c2ccc(Cl)c(Cl)c2)CC1 | -15.4%
76 | Cc1c(NS(=O)(=O)c2ccc(N3CCN(C)CC3)c([N+](=O)[O-])c2)c(=O)n(-c2ccccc2)n1C | 13.7%
77 | Cc1csc(CN(C)C(=O)C2CCC(=O)N(CCN(C)C)C2)n1 (stereo not drawn) | -8.18%
78 | Cc1cccc(CSCCNC(=O)c2ccc(N(C)S(=O)(=O)c3ccccc3)cc2)c1 | -4.05%
79 | COc1ccc(Cl)cc1-n1c(=S)sc2c(=O)[nH]c(SCC(=O)NCC3CCCO3)nc21 (stereo not drawn) | 12.1%
80 | CC(C)[C@@H](NC(=O)C1CCC(CNC(=O)[C@H](Cc2ccccc2)NC(=O)OC(C)(C)C)CC1)C(=O)O (stereo partly drawn) | 11.8%
81 | COc1ccc(C(=O)N/N=C(\C)c2ccc3c(c2)C2C=CCC2C(c2ccccc2)N3)cc1 (stereo not drawn) | -1.79%
82 | Cc1ccsc1/C=N/NC(=O)Cc1cc(=O)[nH][nH]1 | 2.71%
83 | CN(N)c1nc(-c2ccccc2)cc(-c2ccccc2)n1 | 21.7%
84 | COc1ccc2nc(/N=C/c3c(C)[nH]n(-c4ccc(C)cc4)c3=O)sc2c1 | -10.5%
85 | COC(=O)C(O)(c1ccc(N(C)C(=O)OC(C)C)cc1)C(F)(F)F (stereo not drawn) | 15.5%
86 | CCn1c(C)nnc1SCC(=O)NC1CCCC1 | -2.2%
87 | COC(=O)c1sccc1NC(=O)CSc1ccccc1NS(=O)(=O)c1ccc(Br)cc1 | 23.3%
